Source: the supplement of paper PMC4604168 (melanoma cell lines)
Some of the results follow. Single values are uncertain, as repeats are few or missing.

How the values were obtained:
Test in all cases: cell count relative to DMSO control; melanoma cells; higher = more viable cells
Details in all cases: library dose: low library concentration; 72 h
WM1745 = system: WM1745
WM3526 = system: WM3526
WM3619 = system: WM3619
WM451Lu = system: WM451Lu
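Further: cell number obtained by counting DAPI-stained nuclei in high-throughput microscope images with image analysis software, screen run in 1,536-well plates.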

SMILES | cell count (WM1745) [%] | cell count (WM3526) [%] | cell count (WM3619) [%] | cell count (WM451Lu) [%]
COc1ccc(-c2ccc3c(N4CCOCC4)nc(N4C[C@@H](C)O[C@@H](C)C4)nc3n2)cc1CO + CCCCCCCCCCCC1=C(O)C(=O)C=C(O)C1=O [Embelin] (first compound 0.02 µM, partner dose 1.2 µM) | 94.4 | 106 | 104 | 103
CCN(CC)CCCCNc1ncc2cc(-c3cc(OC)cc(OC)c3)c(NC(=O)NC(C)(C)C)nc2n1 + O=c1cc(-c2cccc3c2Sc2ccccc2S3)oc(N2CCOCC2)c1 [KU55933] (first compound 0.1 µM, partner dose 1 µM) | 86.1 | 82.6 | 88.6 | 103
COc1ccc(-c2ccc3c(N4CCOCC4)nc(N4C[C@@H](C)O[C@@H](C)C4)nc3n2)cc1CO + O=C(O)C(=O)Nc1sc2c(c1C(=O)O)CCNC2 [TCS401] (first compound 0.02 µM, partner dose 1.66667 µM) | 93.6 | 102 | 123 | 103
O=S(=O)(c1ccccc1)N(CC(F)(F)F)c1ccc(C(O)(C(F)(F)F)C(F)(F)F)cc1 + O=c1cc(-c2cccc3c2Sc2ccccc2S3)oc(N2CCOCC2)c1 [KU55933] (first compound 1.4 µM, partner dose 1 µM) | 114 | 90.7 | 135 | 97.1
Cc1cc([N+](=O)[O-])ccc1NS(=O)(=O)c1cc(Cl)ccc1Cl + Oc1nc(-c2ccc(C(F)(F)F)cc2)nc2c1CSCC2 [XAV939] (first compound 1 µM, partner dose 2 µM) | 91.9 | 103 | 113 | 111
O=S(=O)(c1ccccc1)N(CC(F)(F)F)c1ccc(C(O)(C(F)(F)F)C(F)(F)F)cc1 + Oc1cc(-c2nc(-c3ccccc3)[nH]c2-c2ccncc2)ccc1Cl [L779450] (first compound 1.4 µM, partner dose 0.2 µM) | 85.8 | 70.1 | 76.6 | 103
COc1ccc(-c2ccc3c(N4CCOCC4)nc(N4C[C@@H](C)O[C@@H](C)C4)nc3n2)cc1CO + Cc1cc([N+](=O)[O-])ccc1NS(=O)(=O)c1cc(Cl)ccc1Cl [FH535] (first compound 0.02 µM, partner dose 1 µM) | 90.9 | 70.9 | 73 | 100
COc1ccc(COc2ccc(Cc3cnc(N)nc3N)cc2OC)cc1 + CCCCCCCCCCCC1=C(O)C(=O)C=C(O)C1=O [Embelin] (first compound 1 µM, partner dose 1.2 µM) | 113 | 102 | 81.4 | 92.4
COc1ccc(-c2ccc3c(N4CCOCC4)nc(N4C[C@@H](C)O[C@@H](C)C4)nc3n2)cc1CO + O=c1cc(-c2cccc3c2Sc2ccccc2S3)oc(N2CCOCC2)c1 [KU55933] (first compound 0.02 µM, partner dose 1 µM) | 99.4 | 88.4 | 83.9 | 74.8
N#Cc1c(O)c2c(-c3ccc(-c4ccccc4O)cc3)csc2[nH]c1=O + CC(C)CCN1c2nc(Nc3cc(F)c(O)c(F)c3)ncc2N(C)C(=O)C1C [BID1870] (first compound 2 µM, partner dose 0.2 µM) | 94.6 | 95 | 119 | 105
Oc1cc(-c2nc(-c3ccccc3)[nH]c2-c2ccncc2)ccc1Cl + c1cc(-c2cnn3cc(-c4ccc(OCCN5CCCCC5)cc4)cnc23)ccn1 [Dorsomorphin] (first compound 0.2 µM, partner dose 0.4 µM) | 87.3 | 58.3 | 103 | 86.8
COc1ccc(COc2ccc(Cc3cnc(N)nc3N)cc2OC)cc1 + CC(C)CCN1c2nc(Nc3cc(F)c(O)c(F)c3)ncc2N(C)C(=O)C1C [BID1870] (first compound 1 µM, partner dose 0.2 µM) | 113 | 52.7 | 138 | 117
N#Cc1c(O)c2c(-c3ccc(-c4ccccc4O)cc3)csc2[nH]c1=O + CCN(CC)CCCCNc1ncc2cc(-c3cc(OC)cc(OC)c3)c(NC(=O)NC(C)(C)C)nc2n1 [PD173074] (first compound 2 µM, partner dose 0.1 µM) | 99.5 | 127 | 109 | 118
N#Cc1c(O)c2c(-c3ccc(-c4ccccc4O)cc3)csc2[nH]c1=O + COc1cc(N2CCC(N3CCN(C)CC3)CC2)ccc1Nc1ncc(Cl)c(Nc2ccccc2S(=O)(=O)C(C)C)n1 [NVP-TAE684] (first compound 2 µM, partner dose 0.08 µM) | 100 | 111 | 115 | 96.1
COC(=O)c1sccc1S(=O)(=O)Nc1ccc(Nc2ccccc2)cc1OC + COc1ccc2c(c1)CCC1C2CCC2(C)C(NCCCCCCN3C(=O)C=CC3=O)CCC12 [U73122] (first compound 1 µM, partner dose 0.4 µM) | 89.4 | 92.2 | 92.9 | 106
COc1ccc(-c2ccc3c(N4CCOCC4)nc(N4C[C@@H](C)O[C@@H](C)C4)nc3n2)cc1CO + COc1cc(N2CCC(N3CCN(C)CC3)CC2)ccc1Nc1ncc(Cl)c(Nc2ccccc2S(=O)(=O)C(C)C)n1 [NVP-TAE684] (first compound 0.02 µM, partner dose 0.08 µM) | 101 | 84.4 | 101 | 99.7
O=C1NC(=O)/C(=C/c2ccc(-c3ccc(F)cc3O)o2)S1 + Cn1cc(/C=C2\C(=O)Nc3cccnc32)c2ccccc21 [GW441756] (first compound 1 µM, partner dose 0.4 µM) | 101 | 107 | 87.4 | 114
COc1cc(N2CCC(N3CCN(C)CC3)CC2)ccc1Nc1ncc(Cl)c(Nc2ccccc2S(=O)(=O)C(C)C)n1 + Cn1cc(/C=C2\C(=O)Nc3cccnc32)c2ccccc21 [GW441756] (first compound 0.08 µM, partner dose 0.4 µM) | 91.9 | 89.8 | 101 | 99.6
N#Cc1c(O)c2c(-c3ccc(-c4ccccc4O)cc3)csc2[nH]c1=O + COc1ccc2c(c1)CCC1C2CCC2(C)C(NCCCCCCN3C(=O)C=CC3=O)CCC12 [U73122] (first compound 2 µM, partner dose 0.4 µM) | 107 | 117 | 95.1 | 115
COC(=O)c1sccc1S(=O)(=O)Nc1ccc(Nc2ccccc2)cc1OC + O=c1cc(-c2cccc3c2Sc2ccccc2S3)oc(N2CCOCC2)c1 [KU55933] (first compound 1 µM, partner dose 1 µM) | 91.9 | 97.4 | 81.6 | 96.5
COc1ccc(-c2ccc3c(N4CCOCC4)nc(N4C[C@@H](C)O[C@@H](C)C4)nc3n2)cc1CO + CCN(CC)CCCCNc1ncc2cc(-c3cc(OC)cc(OC)c3)c(NC(=O)NC(C)(C)C)nc2n1 [PD173074] (first compound 0.02 µM, partner dose 0.1 µM) | 94.7 | 87.4 | 81.7 | 107
Oc1cc(-c2nc(-c3ccccc3)[nH]c2-c2ccncc2)ccc1Cl + COc1cc(N2CCC(N3CCN(C)CC3)CC2)ccc1Nc1ncc(Cl)c(Nc2ccccc2S(=O)(=O)C(C)C)n1 [NVP-TAE684] (first compound 0.2 µM, partner dose 0.08 µM) | 62.4 | 61.2 | 86.3 | 106
COc1ccc2c(c1)CCC1C2CCC2(C)C(NCCCCCCN3C(=O)C=CC3=O)CCC12 (stereo not given) + COc1cc(N2CCC(N3CCN(C)CC3)CC2)ccc1Nc1ncc(Cl)c(Nc2ccccc2S(=O)(=O)C(C)C)n1 [NVP-TAE684] (first compound 0.4 µM, partner dose 0.08 µM) | 79.5 | 91.6 | 108 | 102
O=C1NC(=O)/C(=C/c2ccc(-c3ccc(F)cc3O)o2)S1 + COc1cc(N2CCC(N3CCN(C)CC3)CC2)ccc1Nc1ncc(Cl)c(Nc2ccccc2S(=O)(=O)C(C)C)n1 [NVP-TAE684] (first compound 1 µM, partner dose 0.08 µM) | 105 | 59.2 | 96.2 | 98.7
CCN(CC)CCCCNc1ncc2cc(-c3cc(OC)cc(OC)c3)c(NC(=O)NC(C)(C)C)nc2n1 + Cn1cc(/C=C2\C(=O)Nc3cccnc32)c2ccccc21 [GW441756] (first compound 0.1 µM, partner dose 0.4 µM) | 74.6 | 86.1 | 106 | 121
CCN(CC)CCCCNc1ncc2cc(-c3cc(OC)cc(OC)c3)c(NC(=O)NC(C)(C)C)nc2n1 + CC(C)CCN1c2nc(Nc3cc(F)c(O)c(F)c3)ncc2N(C)C(=O)C1C [BID1870] (first compound 0.1 µM, partner dose 0.2 µM) | 88.2 | 91.8 | 120 | 97.8
COc1cc2ncnc(Nc3ccc(Oc4ccccc4)cc3)c2cc1OC + Oc1nc(-c2ccc(C(F)(F)F)cc2)nc2c1CSCC2 [XAV939] (first compound 2 µM, partner dose 2 µM) | 77.3 | 94.9 | 95.7 | 109
c1cc(-c2cnn3cc(-c4ccc(OCCN5CCCCC5)cc4)cnc23)ccn1 [Dorsomorphin] + CCCCCCCCCCCC1=C(O)C(=O)C=C(O)C1=O [Embelin] (first compound 0.4 µM, partner dose 1.2 µM) | 88.7 | 112 | 117 | 100
O=C1NC(=O)/C(=C/c2ccc(-c3ccc(F)cc3O)o2)S1 + Oc1nc(-c2ccc(C(F)(F)F)cc2)nc2c1CSCC2 [XAV939] (first compound 1 µM, partner dose 2 µM) | 88.5 | 86.7 | 94.3 | 92.9
O=S(=O)(c1ccccc1)N(CC(F)(F)F)c1ccc(C(O)(C(F)(F)F)C(F)(F)F)cc1 + COc1cc2ncnc(Nc3ccc(Oc4ccccc4)cc3)c2cc1OC [SrcI1] (first compound 1.4 µM, partner dose 2 µM) | 77.1 | 97.4 | 87 | 101
